In patent publication EP4671274A1:
Some entries of the source have several records that differ or are many. The list is limited to them. An entry can have further records. Values given together seem to repeat one measurement (runs, samples, wells or individuals).

Molecular target: recombinant His-tagged canine interleukin-13 (cIL-13) (canine) (UniProt Q9N0W9)
Assay: ELISA, His-tagged cIL-13 on nickel-coated plate

Chain of UniProt Q9N0W9 (Q9N0W9 other isoform, or with tags, fused parts or gaps): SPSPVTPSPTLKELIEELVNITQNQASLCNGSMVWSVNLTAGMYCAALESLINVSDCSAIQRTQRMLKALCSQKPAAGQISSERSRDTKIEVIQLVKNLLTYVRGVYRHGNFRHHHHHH

B1: mouse monoclonal antibody 32A10-#20 (antibody, from another filing, V domains shown)
VH: EVQLQQSGPELVKPGASVKVSCKTSGYSFTDYPIYWVRQSHGESLEWIGYIDPYNGGTTYNQNFKDKATLTVDKSSSTAFMHLNSLTSEDSAVYFCATAVVATDVMENWGQGTSVTVSS
VL: DIVLTQSQKFMSTSVGDRVSITCKASQNVRNAVAWFQQKPGQSPKALIYLASNRYTGVPDHFTGSGSGTDFTLTISNVQSEDLADYFCLQHWNYPLTFGAGTKLELK
In the case of B1, the EC50 is reported as 0.218 µg/mL and 1.45 nM [columns of one line].
